# The list shows a part of the results. At the low end of the ranking, values are background and their order means little.
# Test system: T1, GST-NbGlk1(82-244)
# T1 sequence: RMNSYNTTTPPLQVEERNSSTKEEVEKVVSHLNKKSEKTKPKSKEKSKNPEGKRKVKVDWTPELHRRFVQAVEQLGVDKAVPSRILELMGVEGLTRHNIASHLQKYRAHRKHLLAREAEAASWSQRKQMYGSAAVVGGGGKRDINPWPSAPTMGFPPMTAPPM
# Test: protein-binding microarray;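 further: rank-based score ranging −0.5 to +0.5 with E above 0.45 taken as significant binding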
# Conditions: NbGlk1 is a Golden2-like transcription factor of Nicotiana benthamiana; high values mean tight binding; most listed sequences are background and not binding sites; double strand, one strand shown
row,Sequence,binding signal [E-score]
1,ACCGCAGT,-0.123
2,AATCAGAG,0.229
3,AGATTGAG,0.0933
4,ATTTGGTG,0.213
5,ACTGAAAG,-0.00188
6,AAGGTACT,-0.0699
7,AGGGTCGA,-0.198
8,AACATGGT,-0.137
9,CAAGATAG,0.0883
10,ATTCTACC,0.168
11,ACGGAGCA,-0.133
12,AGGACCGG,-0.258
13,ATTGGGAA,0.0688
14,ATACTCAT,0.264
15,AGCCCACG,-0.213
16,AATGATCA,0.0783
17,AATTGTAA,0.189
18,ACCACAAC,-0.0247
19,ACTACAGT,-0.148
20,AGTACCAT,-0.097
21,ATCTTATG,0.195
22,CAAAACCC,-0.0619
23,ATAGAGTC,-0.153
24,ATCGCACG,0.179
25,AGACGGCG,-0.299

row,Sequence,binding signal [E-score]
1,CACTATGC,0.0838
2,AAAGGGTT,-0.177
3,AAACCGAG,-0.171
4,ATACCTGA,0.0214
5,AGTGAACT,-0.202
6,CACCTGCG,-0.101
7,ACGCTAAG,-0.0978
8,AAGCTTGA,-0.123
9,AGAACCGC,-0.137
10,CAACCACG,-0.0691
11,ACCAACGC,-0.17
12,CACGTACC,-0.252
13,CAGCACCC,-0.198
14,AGGCTGCC,-0.293
15,AATTCTAC,0.133
16,ATTCGCCA,0.278
17,CACCATCA,-0.0947
18,CACACACC,-0.167
19,AGATATAA,0.208
20,ATCATATC,0.329
21,ACCCCGGG,-0.207
22,AATACCCA,0.148
23,AACCAAAC,-0.073
24,ACACCCCA,-0.11
25,CACGCTCG,-0.0742

row,Sequence,binding signal [E-score]
1,ACCCGCAA,0.0874
2,AATCCGGC,0.388
3,AATACCAT,0.00186
4,AGGAAGGA,-0.0882
5,AAGCGGTA,-0.0248
6,AAATACTC,0.12
7,AACCCTCG,-0.231
8,ACCGTCTA,-0.187
9,ACCAAATA,0.0565
10,ACGCAAGC,0.00941
11,AAAACTTG,-0.0438
12,AAAAAATG,-0.0139
13,ACGGGCAT,-0.114
14,ATTTACGG,0.00553
15,AAAGCTGA,-0.0963
16,AGGATAAA,0.0638
17,AAAGCGCA,-0.136
18,CACTGCTC,-0.228
19,ATAGGTGC,0.0346
20,AGGCGCAT,-0.122
21,ATCTTACC,0.252
22,AAAGGTAG,-0.00915
23,ATTATAGG,0.121
24,CAGACCGG,-0.0845
25,ACGGCTCC,0.00315

row,Sequence,binding signal [E-score]
1,AAACCTTT,0.0369
2,ACTCCGCC,-0.221
3,ATGAAAGC,-0.0457
4,AATGTGCA,0.051
5,ATGCATAC,0.063
6,ATGCTGAG,-0.098
7,ACTAAGAT,0.231
8,AACGATGC,-0.179
9,AAGGTCGG,-0.109
10,AGGCCCCC,-0.379
11,CAATGTCA,0.0859
12,AAAGGGGC,-0.241
13,ACATCTGG,0.033
14,ACCATAGT,-0.0902
15,AACTCATA,-0.0117
16,ATATGTCG,0.0948
17,AAAATCCG,0.446
18,ATGATTTC,0.387
19,AAGATAAG,0.0993
20,ACATATGG,-0.0525
21,ACGAGCAT,-0.0644
22,ACCTAGCG,-0.191
23,ACAGCCTA,-0.134
24,ATTGGCCG,-0.131
25,ATAAACTC,0.0551

row,Sequence,binding signal [E-score]
1,CAAGATCG,0.284
2,AGGCATTG,-0.0875
3,ACCTTAGC,-0.0505
4,AAGCGTTG,0.019
5,AAGAGAGT,-0.16
6,ACCCCAGG,-0.222
7,AACCTCAC,-0.148
8,AGGGTTAT,-0.148
9,AGGGTCAC,-0.0446
10,ACATAACG,0.0827
11,AACTAAAG,-0.097
12,ATAGCGCC,-0.115
13,ATTATACA,0.136
14,AACGTGGA,0.00477
15,ATTGACAG,0.0906
16,CAGAGGAA,-0.209
17,CAATCTCG,0.404
18,ATTTGAAG,0.178
19,ACCCTTAG,-0.143
20,AGAGACCG,-0.177
21,AGTGTCAC,-0.207
22,ACCACGAT,0.048
23,AACACACT,-0.115
24,ATAGTTCA,0.00351
25,AGATGACC,-0.109

row,Sequence,binding signal [E-score]
1,AAAGGTTG,0.0119
2,ATGGTGTG,0.0201
3,ACTATCAG,-0.00334
4,AAGTCGAC,-0.174
5,AGCCTATC,0.0694
6,ACAAGCGT,-0.24
7,CAACAGGG,-0.112
8,ACTATGGA,-0.0113
9,AGAGGGCG,-0.214
10,AGACGTTA,-0.192
11,AAGTTAAC,0.0198
12,CAATGGAC,-0.13
13,ACAGCTCT,-0.0931
14,ATAAAAGA,0.173
15,ATAACCAA,-0.00893
16,ACAGATTA,0.362
17,AATACAAC,0.00615
18,ATTTAAAC,0.096
19,ACAGATGC,-0.163
20,ATGTAACG,-0.0628
21,CAAAACCA,-0.11
22,AAAGAGAG,-0.128
23,CAGACATA,-0.0824
24,AAGCACGG,-0.089
25,AGGTTACT,-0.0542

row,Sequence,binding signal [E-score]
1,ACTCGAGT,-0.208
2,AAACAGGA,0.0635
3,AGAATCCT,0.439
4,CAAGACAG,-0.0527
5,ATGTGTTC,-0.0817
6,ACCTAATC,0.0526
7,ATACATTG,0.0937
8,ACCAAAAA,0.117
9,AGAGCAGC,-0.248
10,ACTTTAGA,0.072
11,ATAGAATG,-0.032
12,ATAAACAT,0.107
13,AGTCAATA,0.0438
14,ATGAAGAG,-0.091
15,ACCGTAAG,0.0638
16,ACATCCCT,-0.019
17,CAATGGTC,-0.126
18,AATCAGGC,0.29
19,CAATAAAC,0.00712
20,AAACCCGC,-0.00698
21,AAACGACG,-0.0669
22,ATACTTGA,0.0379
